# Data taken from PubChem BioAssay (NCATS).
# Values joined by “and” are separate entries in the source; they are usually repeats but may differ in a detail not shown here. Equal values may be shown once. The list shows a part of the results. Shown are side measurements of this screen, not its main read-out; they come without a call. Most of these compounds were active or inconclusive in the main read-out, so they are no random draw. For some assays here: The note in brackets gives the kind of curve behind each potency; many fits are weak.
# Tests used:
# [1] = biological target: Catechol O-methyltransferase (Homo sapiens) (UniProt P21964); assay: Confirmatory Screen for Target Class Profiling of Small Molecule Inhibitors of Methyltransferases (AID 1745852); conditions: MTase-Glo luminescence, SAH detection, recombinant enzyme; measured here: COMT inhibition potency;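 note: inhibitor potency for blocking SAH production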
# UniProt P21964, sequence (P21964 whole entry, looked up): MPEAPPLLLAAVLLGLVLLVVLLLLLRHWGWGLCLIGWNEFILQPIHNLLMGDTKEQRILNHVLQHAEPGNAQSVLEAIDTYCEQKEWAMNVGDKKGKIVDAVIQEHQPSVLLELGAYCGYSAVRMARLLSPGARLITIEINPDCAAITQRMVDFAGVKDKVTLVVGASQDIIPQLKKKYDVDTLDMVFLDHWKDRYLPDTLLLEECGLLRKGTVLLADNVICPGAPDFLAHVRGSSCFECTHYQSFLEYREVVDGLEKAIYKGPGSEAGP
# [2] = S16 Schwann cell PMP22 intronic element beta-lactamase assay (AID 624044); conditions: S16 rat Schwann cells, PMP22 element beta-lactamase FRET, 24 h; measured here: 460 nm blue channel; note: nearly all actives have a fitted effect of over 15% in size
# Procedure, shortened: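 Beta-lactamase reporter under a PMP22 intronic regulatory element in stable S16 rat Schwann cells; 24 h compound exposure. 460 nm blue signal normalized between DMSO (0%) and potassium clavulanate, with 535 nm FRET tracking viability; curves classed by r2 and response.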
# [3] = A High-Content qHTS Against Drug Library for the Identification of Small Molecules that Inhibit DYT1 Early Onset Primary Dystonia-Associated Cell Pathology (AID 1645839); conditions: HEK293 Flp-In EGFP-delE TorsinA, punctate imaging, 48 h; measured here: cell count cytotoxicity
# Procedure, shortened: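 Induced EGFP-delE TorsinA cells are imaged after 48 h of compound treatment. Punctate fusion-protein distribution gives the %pathology value, while nuclei counts flag toxicity. Wild-type EGFP-hTOR1A cells define the normal pattern.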
# [4] = qHTS assay for small molecule antagonists of peroxisome proliferator-activated receptor delta signaling (AID 588535); conditions: HEK293T PPARd-UAS-bla, beta-lactamase FRET ratio, 18 h; 460 nm channel;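 note: cells co-treated with a PPAR-delta agonist as stimulator during compound exposure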
# Procedure, shortened: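 Inhibition of PPAR-delta response element-driven beta-lactamase expression is measured in HEK293T cells exposed to a compound titration series for 18 hrs at 37 C. Half-maximal inhibition comes from Hill equation fitting.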
# [5] = qHTS assay for small molecule antagonists of peroxisome proliferator-activated receptor gamma signaling (AID 588537); conditions: HEK293 PPARg-UAS-bla, beta-lactamase ratio, antagonist mode; measured here: W460 blue channel
# Procedure, shortened: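 Compounds are tested as concentration series for inhibition of rosiglitazone-driven (50 nM) reporter expression in GeneBLAzer PPAR-gamma-UAS-bla HEK293 cells. After 16 h at 37 C, CCF4 substrate is added for 2 h at room temperature and blue/green fluorescence is measured.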
# [6] = qHTS assay for small molecule agonists of retinoid X receptor alpha signaling (AID 588544); conditions: HEK293T RXRa-UAS-bla, beta-lactamase reporter, 18 h; 530 nm emission
# [7] = qHTS assay for small molecule antagonists of retinoid X receptor alpha signaling (AID 588546); conditions: HEK293T RXRa-UAS-bla, beta-lactamase ratio, antagonist mode; measured here: W530 green channel, cytotoxicity proxy;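 note: cells stimulated with 9-cis-retinoic acid as agonist; % is set by controls: 0 for no effect and ±100 for the full control effect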
# Procedure, shortened: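 Beta-lactamase reporter inhibition, read as CCF4 fluorescence ratio (ex 405, em 460/530 nm) after 2 h at RT. HEK293T UAS-bla cells, 2500/well, were stimulated with 9-cis-RA at 500 or 100 nM final alongside test compound for 18 h at 37 C.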
# [8] = biological target: Nicotinamide N-methyltransferase (Homo sapiens) (UniProt P40261); assay: Confirmatory Screen for Target Class Profiling of Small Molecule Inhibitors of Methyltransferases (AID 1745852); conditions: MTase-Glo luminescence, SAH detection, recombinant enzyme; measured here: NNMT inhibition potency;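 note: inhibitor potency for blocking SAH production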
# UniProt P40261, sequence (P40261 whole entry, looked up): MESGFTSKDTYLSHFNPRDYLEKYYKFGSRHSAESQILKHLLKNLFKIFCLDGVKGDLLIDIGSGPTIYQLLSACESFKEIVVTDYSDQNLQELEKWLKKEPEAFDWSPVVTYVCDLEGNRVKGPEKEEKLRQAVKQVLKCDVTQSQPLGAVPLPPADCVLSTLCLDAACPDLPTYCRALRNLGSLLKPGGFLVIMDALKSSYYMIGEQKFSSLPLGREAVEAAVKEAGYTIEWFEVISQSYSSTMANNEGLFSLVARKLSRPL
# [9] = NCATS anti-infectives library activity on the primary C. elegans qHTS viability assay (AID 1745855); conditions: C. elegans worm area imaging
# Procedure, shortened: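 GFP read-out by 488 nm laser cytometry at day 0, 3 and 7, gated on object perimeter, area and peak intensity, scored viability of PE254-GFP-FLuc worms exposed to compound in S medium with bacterial capsules at 21 °C.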
# [10] = qHTS assay for small molecule antagonists of androgen receptor signaling (AID 588516); conditions: AR-UAS-bla HEK293, beta-lactamase ratio, antagonist mode, 16 h
# Procedure, shortened: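 Antagonist-mode qHTS: inhibition of R1881 (10 nM)-driven beta-lactamase expression in GripTite HEK 293 cells is measured after 16 h; values are Hill-derived IC50s normalized between R1881 and DMSO wells.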
# [11] = biological target: Histamine N-methyltransferase (Homo sapiens) (UniProt P50135); assay: Confirmatory Screen for Target Class Profiling of Small Molecule Inhibitors of Methyltransferases (AID 1745852); conditions: MTase-Glo luminescence, SAH detection, recombinant enzyme; measured here: HNMT inhibition potency;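 note: inhibitor potency for blocking SAH production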
# UniProt P50135, sequence (P50135 whole entry, looked up): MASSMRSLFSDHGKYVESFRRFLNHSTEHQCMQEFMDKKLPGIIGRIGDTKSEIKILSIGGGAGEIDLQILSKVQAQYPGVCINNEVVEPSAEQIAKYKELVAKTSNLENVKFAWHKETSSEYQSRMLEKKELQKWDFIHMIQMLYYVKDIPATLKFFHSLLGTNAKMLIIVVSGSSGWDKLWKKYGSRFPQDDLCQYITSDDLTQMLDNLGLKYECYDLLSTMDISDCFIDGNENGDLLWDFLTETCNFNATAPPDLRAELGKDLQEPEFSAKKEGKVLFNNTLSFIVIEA
# [12] = biological target: Phenylethanolamine N-methyltransferase (Homo sapiens) (UniProt P11086); assay: as above; conditions: MTase-Glo luminescence, SAH detection, recombinant enzyme; measured here: PNMT inhibition potency
# UniProt P11086, sequence (P11086 whole entry, looked up): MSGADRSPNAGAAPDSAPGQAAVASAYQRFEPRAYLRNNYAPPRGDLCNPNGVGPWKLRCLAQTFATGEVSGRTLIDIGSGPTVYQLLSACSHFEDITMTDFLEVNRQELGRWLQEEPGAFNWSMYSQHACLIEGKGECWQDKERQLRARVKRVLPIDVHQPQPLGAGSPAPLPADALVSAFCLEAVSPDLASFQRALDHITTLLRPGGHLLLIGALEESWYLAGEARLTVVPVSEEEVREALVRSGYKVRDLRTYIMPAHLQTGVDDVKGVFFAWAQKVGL
# [13] = day 7, measured here: worm number
# [14] = day 7, measured here: worm number, day 3
# Tags give direction and shape of the fitted curve.
structure (smiles),measurement,setting,value
C=C(CO)C(=O)O[C@H]1CC(=C)[C@@H]2C[C@H](O)C(=C)[C@@H]2[C@H]2OC(=O)C(=C)[C@@H]21,IC50,[1],"5.95 µM [falling, partial curve]"
NNc1ccccc1,AC50,[2],"12.6 µM [falling, single point]"
same,AC50,[3],"0.282 µM [falling, full curve, poor fit]"
CCOC(=O)CC(SP(=S)(OC)OC)C(=O)OCC (centres undefined),max response,[4],45.8% and 63.4%
same,AC50,[5],"44.7 nM [falling, full curve, poor fit]"
same,max response,[6],20% and 24.4%
same,AC50,[2],"8.91 µM [falling, partial curve, poor fit]"
same,AC50,[3],"28.2 µM [rising, partial curve]"
Cc1cc(O)ccc1Cl,AC50,[2],"0.0631 µM [falling, full curve, poor fit]"
same,AC50,[3],"12.6 µM [falling, partial curve, poor fit]"
CN1CCc2cc(O)cc3c2[C@H]1Cc1ccc(O)c(O)c1-3,IC50,[1],"2.43 µM [falling, full curve]"
Oc1cccc2cccnc12,max response,[6],22.5% and 17.9%
same,max response,[7],0.493%
same,AC50,[3],"12.6 µM [falling, full curve, poor fit]"
Nc1ccc(Sc2ccc(N)cc2)cc1,max response,[4],5.29% and 70.8%
same,AC50,[3],"12.6 µM [falling, full curve]"
CC(C)(C)C(O)C(Oc1ccc(Cl)cc1)n1cncn1 (centres undefined),max response,[6],1.5%
same,AC50,[3],"1 µM [rising, full curve, poor fit]"
CCCCCCCCCC(CC)c1ccc(S(=O)(=O)O)cc1 (centres undefined),AC50,[5],"1 nM [falling, full curve, poor fit]"
same,AC50,[3],"17.8 µM [falling, partial curve, poor fit]"
Oc1cc(Cl)ccc1Oc1ccc(Cl)cc1Cl,max response,[6],-6.5%
same,AC50,[3],"28.2 µM [falling, single point]"
COc1cc(C(=O)O[C@H]2[C@@H]3C=CO[C@@H](O[C@@H]4O[C@H](CO)[C@@H](O)[C@H](O)[C@H]4O)[C@@H]3[C@@]3(CO)O[C@@H]23)ccc1O,IC50,[1],"2.96 µM [falling, full curve]"
COc1ccc(-c2cc([C@H]3CN4CC[C@H]3C[C@@H]4CN)nc(C)n2)cc1OC,IC50,[8],"55.5 µM [falling, single point]"
C[C@@H](N)C(=O)N[C@@H](CO)C(=O)N[C@H](C(=O)N[C@H](C(=O)N[C@H](C(=O)N[C@@H](CC(N)=O)C(=O)N[C@@H](Cc1ccc(O)cc1)C(=O)N[C@H](C(N)=O)[C@@H](C)O)[C@@H](C)O)[C@@H](C)O)[C@@H](C)O,AC50,[9]; [13],"8.16 µM [falling, partial curve, poor fit]"
same,AC50,"[9]; day 7, measured here: worm area, day 3","14.5 µM [falling, partial curve, poor fit]"
C[C@H]1CCCC(=O)CCC/C=C/c2cc(O)cc(O)c2C(=O)O1,AC50,[10]; measured here: W460 blue channel fit,"25.1 µM [falling, full curve, poor fit] and 25.1 µM [falling, partial curve, poor fit]"
same,AC50,"[10]; measured here: W530 green channel, cytotoxicity/artifact","5.01 µM [rising, full curve, poor fit]"
same,max response,[4],97.9% and 45.4% and 55.1%
same,AC50,[5],"15.8 µM [falling, full curve] and 44.7 µM [rising, single point]"
same,max response,[6],22.8%
same,max response,[7],21.8% and 28%
same,IC50,[1],"12.1 µM [falling, partial curve]"
same,IC50,[11],"10.8 µM [falling, partial curve]"
same,IC50,[8],"19.2 µM [falling, partial curve]"
same,IC50,[12],"13.6 µM [falling, partial curve]"
O=C(Nc1ccccc1F)N[C@@H]1N=C(c2ccccc2)c2ccccc2NC1=O,AC50,[9]; [13],"25.8 µM [falling, single point]"
same,AC50,[9]; [14],"11.5 µM [falling, partial curve, poor fit]"
O=C(NCCCNc1nc(Nc2ccc(N3CCOCC3)cc2)ncc1C1CC1)C1CCC1,AC50,[9]; [13],"7.27 µM [falling, partial curve]"
CCCN1CC[C@@H]2c3cc(O)ccc3CC[C@@H]21,IC50,[11],"13.7 µM [falling, partial curve]"
Clc1ccc([C@]23CNC[C@H]2C3)cc1Cl,IC50,[12],"6.07 µM [falling, full curve]"
C[C@@H](COc1ccc(Oc2ccccc2)cc1)Oc1ccccn1,AC50,[9]; [14],"10 µM [falling, full curve, poor fit]"
CNC1CCc2ccccc21 (centres undefined),IC50,[8],"87.9 µM [falling, single point]"
same,IC50,[12],"49.4 µM [falling, partial curve]"
